Measurements taken from a collection of fitness landscapes (doi:10.1016/j.celrep.2020.107928).
The full ranking holds about 81,000 sequences; the median of “one-hybrid fitness for binding parS DNA” is about -0.17, and the highest 2% start at about 0.51. The list shows a part of the results.

B1: Caulobacter ParB omega fusion; a variant is named by its letters at X, in order, B8GW30 (parent)
chain: MESVVVGEPGMSEGRRGLGRGLSALLGEVDAAPAQAPGEQLGGSREAPIEILQRNPDQPRRTFREEDLEDLSNSIREKGVLQPILVRPSPDTAGEYQIVAGERAWRAAQRAGLKTVPIMVRELDDLAVLEIGIIENVQRADLNVLEEALSYKVLMEKFERTQENIAQTIGKSXSHVANXMRLLXLPDEVQSYLVSGELTAXHARAIAAAADPVALAKQIIEGGLSVRETEALARKAPNLSAGKSKGGRPPRVKDTDTQALESDLSSVLGLDVSIDHRGSTGTLTITYATLEQLDDLCNRLTRGI

Variants of: B1
Test: one-hybrid fitness for binding parS DNA (scaled: cognate 1, non-cognate 0); higher = stronger binding
Settings: with parS DNA site
Outline: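 The reporter was HIS3, with the binding site 19 bp from the promoter, in E. coli USO used for bacterial one-hybrid selection of Caulobacter ParB libraries with four specificity codons randomised. Growth was on M9 lacking histidine, with 0.1 mM IPTG and 5 mM 3-AT, for 48 hours at 37°C. Illumina sequencing covered plasmids before and after selection; three replicate libraries were pooled and variants with under 10 reads dropped. A fitness score is the log change in variant-to-wild-type read ratio, rescaled to the cognate and non-cognate references.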

one-hybrid fitness for binding parS DNA, 0.206:
RLQP

one-hybrid fitness for binding parS DNA, 0.844:
RHWG

one-hybrid fitness for binding parS DNA, 0.569:
RWIG

one-hybrid fitness for binding parS DNA, 0.581:
RQKY

one-hybrid fitness for binding parS DNA, 0.95:
RFTC

one-hybrid fitness for binding parS DNA, 0.227:
CLRH

one-hybrid fitness for binding parS DNA, 0.449:
RGEC

one-hybrid fitness for binding parS DNA, 0.236:
RWCV

one-hybrid fitness for binding parS DNA, 0.313:
RGNY

one-hybrid fitness for binding parS DNA, ≤ 0.2:
KNFC
QLYP
PHGY
PAND
RNVY
DGDF
SAVS
QFTF
WYDA
RYYP
FENS
EHAT
HNQC
PCTP
KYLE
SCMS
HLLG
EYEG
KFQA
VFSG
RVFD
CPEY
GCCG
DLLG
RRKQ
NKYG
YCSR
QSYF
WFSC
LHAD
HMLW
PALQ
KNSC
GMHG
APVR
IPLI
SRTM
MQSP
YMVT
CVDC
GTNL
ISSY
IFAR
TAVE
SCNY
HKRS
LLDR
NTAW
AVKE
SVLD
VQTW
ALYF
SHQP
TLCF
LGWL
RKDF
QFKT
YPLE
PWSR
FRYA
QNNH
LQWI
STSM
SLLG
FNPR
TPHG
PMGS
PGIC
NYHS
PMRL
QGRE
RDST
KISR
FCDT
YLGD
ECKG
TSWL
LHGC
VKVR
WYAC
PFSL
TCRN
LMIL
TQER
HGKY
LLAS
SLNW
AMSL
TEYS
CQGR
AVAF
PKDG
TWKS
CSAV
NSSW
WQGN
PYRG
YLKD
HGQC
VVWG
VIMY
KTHF
QFRM
HFCG
AEPF
NQPL
PANY
LGKT
DVQL
LQSF
TKHS
DTLL
HNFD
QRHY
WLHC
CSFS
VKVV
AFKT
SVQY
CCTL
DGSC
SMNH
FNSK
RCDQ
CYMA
PETV
VQSS
LMTA
QKPF
QTLS
VKMF
EKPG
KLMQ
ACTE
DNWY
VLAR
CRFT
WHQT
CKAC
QTYN
IRPF
RLEL
MVHS
HAHP
YSSG
PWKS
SRAL
ARKD
PDFI
YFSR
AWSL
RETI
ETSF
ATHQ
CYHM
QGSE
SALE
SCCT
RTIE
PHTV
LNTC
RHSF
AAMY
RPSR
FARG
DSYC
NDPK
DASR
RFDW
PKAC
PDRR
TDLL
VESG
PDSV
HHGL
GFMS
CSNM
DMVF
RNLR
NIDV
YPEY
TSGH
LPIV
MGAG
KNIT

one-hybrid fitness for binding parS DNA, 0.602:
RFRA
